Residue numbers refer to the chain shown, from its start. Results are given in words; binding and its absence hold for the method and conditions named. Binding seen in cells or lysates may run through a third protein. Some entries that bind do so weakly or less than the wild type. Sequences can lack the tags named with a protein.
What was measured:
Assay in all cases: split reporter; bimolecular fluorescence complementation of NGFP and CGFP fusions in strain JKA17; rich medium with 100 µM IPTG, 0.4% arabinose and 0.2% glucose, three days at 25 °C; relative fluorescence of equal amounts of cells read in a fluorimeter
[1] = target: T1, EIIC^Glc-CGfp (E. coli K-12) (UniProt P69786)
T1 sequence: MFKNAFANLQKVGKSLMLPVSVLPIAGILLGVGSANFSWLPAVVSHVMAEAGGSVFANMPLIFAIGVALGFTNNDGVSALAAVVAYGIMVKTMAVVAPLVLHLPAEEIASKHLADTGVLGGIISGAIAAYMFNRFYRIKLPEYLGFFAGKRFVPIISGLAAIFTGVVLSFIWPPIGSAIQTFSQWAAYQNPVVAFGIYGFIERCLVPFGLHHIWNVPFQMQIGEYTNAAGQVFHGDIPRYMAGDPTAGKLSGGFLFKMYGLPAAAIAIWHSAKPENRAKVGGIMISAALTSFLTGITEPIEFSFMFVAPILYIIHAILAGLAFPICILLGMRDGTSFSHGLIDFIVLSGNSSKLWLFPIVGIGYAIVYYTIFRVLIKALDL

[2] = target: T2, EIICB^Glc-CGfp (E. coli K-12) (UniProt P69786)
T2 sequence: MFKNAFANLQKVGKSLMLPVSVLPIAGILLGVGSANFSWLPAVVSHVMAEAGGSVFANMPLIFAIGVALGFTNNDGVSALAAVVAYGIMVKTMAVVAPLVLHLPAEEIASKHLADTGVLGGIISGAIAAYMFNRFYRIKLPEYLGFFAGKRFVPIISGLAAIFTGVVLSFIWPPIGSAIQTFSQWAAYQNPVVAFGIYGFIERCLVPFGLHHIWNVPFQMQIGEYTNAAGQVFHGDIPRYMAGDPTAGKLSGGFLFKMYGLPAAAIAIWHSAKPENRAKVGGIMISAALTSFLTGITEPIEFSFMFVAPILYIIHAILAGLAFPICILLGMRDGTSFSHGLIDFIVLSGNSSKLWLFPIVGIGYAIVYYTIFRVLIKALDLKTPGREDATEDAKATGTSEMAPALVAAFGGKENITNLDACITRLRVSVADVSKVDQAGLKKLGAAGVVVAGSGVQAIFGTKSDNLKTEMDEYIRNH

[3] = target: T3, EIIB^Glc-CGfp (E. coli K-12) (UniProt P69786)
T3 sequence: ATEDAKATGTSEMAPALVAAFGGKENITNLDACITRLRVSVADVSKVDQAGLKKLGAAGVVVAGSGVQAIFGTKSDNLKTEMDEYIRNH

[4] = target: T4, Linker-EIIB^Glc-CGfp (E. coli K-12) (UniProt P69786)
T4 sequence: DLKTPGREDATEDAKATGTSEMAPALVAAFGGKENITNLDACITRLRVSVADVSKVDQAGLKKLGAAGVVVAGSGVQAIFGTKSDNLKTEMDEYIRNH

[5] = target: T5, EIIC^Glc-Linker-CGfp (E. coli K-12) (UniProt P69786)
T5 sequence: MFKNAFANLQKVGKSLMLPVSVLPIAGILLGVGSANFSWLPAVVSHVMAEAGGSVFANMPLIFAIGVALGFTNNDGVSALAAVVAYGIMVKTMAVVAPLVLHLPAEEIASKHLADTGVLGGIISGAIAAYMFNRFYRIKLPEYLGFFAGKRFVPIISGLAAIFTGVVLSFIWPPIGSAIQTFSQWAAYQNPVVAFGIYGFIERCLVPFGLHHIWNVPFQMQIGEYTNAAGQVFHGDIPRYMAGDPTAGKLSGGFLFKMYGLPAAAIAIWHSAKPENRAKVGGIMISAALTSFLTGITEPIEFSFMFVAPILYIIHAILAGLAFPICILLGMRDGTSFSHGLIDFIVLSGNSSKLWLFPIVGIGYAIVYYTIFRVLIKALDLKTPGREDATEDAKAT

[6] = target: T6, EIIC^Glc-Linker-P384R-CGfp (E. coli K-12) (UniProt P69786)
T6 sequence: T5 sequence with P384R

MRQFYQHYFTATAKLCWLRWLSVPQRLTMLEGLMQWDDRNSES (peptide, UniProt C1P5Z7 1-43) [SgrT-NGfp]
binding [1]: no binding
binding [2]: binds
binding [3]: no binding
binding [4]: no binding
binding [5]: binds
binding [6]: no binding

From publication PMC3901232
